Assay results reported in the supplement of paper PMC10126150.
Values marked as one replicate rest on one cluster of the flow cell; about a third of the high ones do not repeat.

tested on: ATP; assay: switch fluorescence ratio, 500 uM ATP over buffer (Cy3 cluster intensity, sum of 5 cycles each) (fold (ratio)); higher = stronger signal-on switching upon ATP binding; sequences stand for … in TCGTCGGCAGCGTCAGATGTGTATAAGAGACAGTTTTTTTTTTTTTTTTTTTTTTTTT…TC; settings: aptamer strand: ATP DNA aptamer (quencher-CACCTGGGGGAGTATTGCGGAGGAAGG + anchor), 100 nM annealed; ATP concentration: 500 uM; one replicate
How it was run: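 Clusters carrying Cy3-labelled switching strands on a modified Illumina MiSeq flow-cell were annealed to 100 nM quencher-labelled ATP aptamer and imaged in selection buffer. They were imaged again after 15 min with 500 uM ATP at 22 °C, over five buffer/ATP cycles with NaOH stripping and re-annealing in between. For each cluster, the fluorescence ratio is the summed Cy3 intensity of the target cycles divided by that of the buffer cycles, averaged per switch-domain sequence. Clusters outside 100-1000 RFU were left out.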
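Further: ATP exposure 15 min at 22 °C before imaging.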

Sequence	switch fluorescence ratio
TACGCATTCG	1.12
TACGCCAACA	1.18
TACGCCAATG	1.18
TACGCCAGTA	1
TACGCCATAG	1.66
TACGCCCGAA	1.02
TACGCCGCGC	2.66
TACGCGGGAG	1.26
TACGCTGTCA	0.991
TACGGATGTT	0.984
TACGGCCAGT	0.996
TACGGGAA	1.11
TACGGGCCGC	1.03
TACGGGCTCT	0.941
TACGGGGAAT	1
TACGGGTAAC	1.02
TACGGGTGAG	0.985
TACGGGTGTC	1.12
TACGTATGAC	1.01
TACGTCAAT	1.44
TACGTCTTGA	0.942
TACGTCTTTG	0.997
TACGTGCCTG	0.972
TACGTGTGGC	1.04
TACGTTTAAA	1.02
TACGTTTAC	1.32

Sequence	switch fluorescence ratio
TACTAATCGG	1.03
TACTACGTCG	0.999
TACTAGCTTG	1.01
TACTAGGAC	1.07
TACTAGGCAC	1.03
TACTAGGGAG	1.02
TACTATGAGC	1.02
TACTCACTTA	1.18
TACTCAGGAC	1.06
TACTCATC	1.08
TACTCCGAGT	1.77
TACTCTTGAT	0.979
TACTGATTTC	1.01
TACTGCAC	1.5
TACTGCAGGA	1.01
TACTGCGGA	1.03
TACTGCTACT	1.1
TACTGTACGT	1.52
TACTGTAGA	1.05
TACTGTATAT	1.21
TACTTAATC	0.973
TACTTCAGCC	1.15
TACTTCCAAC	1.24
TACTTCCGCT	1.32
TACTTCTGCC	0.996
TACTTGGGAC	1

Sequence	switch fluorescence ratio
TACTTGTACG	1.13
TACTTTATT	1.11
TACTTTCAAG	1.04
TACTTTTGGT	1.02
TAGAAACGTT	1.01
TAGAAAGTTA	1.08
TAGAAATCGT	1.06
TAGAACCCTG	1.01
TAGAAGCCAT	0.997
TAGAAGCTGT	1.01
TAGAAGGTGA	1.1
TAGAAGTAAA	0.972
TAGAATACTA	1.06
TAGACACTTA	1.14
TAGACCGAAG	0.974
TAGACCGTGT	1.02
TAGACCTCAC	1.19
TAGACGGATA	0.994
TAGACGTGTT	1.02
TAGAGAACTT	1.02
TAGAGAGAAG	1.02
TAGAGGGTG	0.988
TAGAGGTAGT	1.02
TAGAGTGCTT	0.99
TAGATAAGAT	0.958
TAGATAGGCA	0.963

Sequence	switch fluorescence ratio
TAGATAGGTT	1.04
TAGATCTGGT	0.985
TAGATCTGTG	0.966
TAGATGGTTA	1
TAGATGTCAA	0.973
TAGATGTGGC	1.01
TAGATTATGT	0.975
TAGATTGGGG	0.972
TAGCAAAGAC	2.66
TAGCACAGAC	2.88
TAGCACCTAT	1.04
TAGCAGTCCT	1.07
TAGCAGTTGT	0.949
TAGCATATA	1.15
TAGCCCGATT	1.01
TAGCGAAACA	2.88
TAGCGCAAGG	1.07
TAGCGCGGC	1.01
TAGCGGACGC	0.999
TAGCGGCCA	1
TAGCGGCGCT	0.997
TAGCGTTGGC	1.03
TAGCTAGATT	1.33
TAGCTAGGGG	0.973
TAGCTCAGTT	0.967
TAGCTCGAAT	0.991

Sequence	switch fluorescence ratio
TAGCTCGCGG	0.974
TAGCTCGCGT	0.984
TAGCTGCGCC	0.979
TAGCTGGTGA	1
TAGCTGTCGC	1.03
TAGCTTGGTA	0.984
TAGCTTTAGG	1.07
TAGGAAAGAG	1.01
TAGGAACCAA	1.03
TAGGAACTAG	0.989
TAGGAAGAAG	0.999
TAGGACCCCT	1.07
TAGGACGCCC	0.991
TAGGACTACG	1
TAGGATGGC	0.996
TAGGATTTAC	1.01
TAGGATTTT	1.02
TAGGCAAAGC	1.02
TAGGCACCCG	0.988
TAGGCAGAGG	1.02
TAGGCATGAA	1.02
TAGGCCGTGG	0.981
TAGGCCTCTT	0.983
TAGGCGAAGT	0.944
TAGGCGCTTG	0.979
TAGGCTCAAT	0.983

Sequence	switch fluorescence ratio
TAGGCTCT	0.989
TAGGCTGTAT	1.03
TAGGGAGACA	1.03
TAGGGCATAG	1.03
TAGGGCCCGA	0.99
TAGGGCCCTG	0.983
TAGGGCCGG	0.921
TAGGGCCTAT	0.923
TAGGGCTTGT	0.977
TAGGGGAGG	0.992
TAGGGGATGT	1.02
TAGGGGGCCG	0.97
TAGGGTATTA	1
TAGGGTCCTC	0.978
TAGGGTGCC	1.01
TAGGGTTAGT	0.98
TAGGTACAAG	0.997
TAGGTACATC	1.05
TAGGTATTTT	1.01
TAGGTCCTCC	1.03
TAGGTCTTCT	1
TAGGTGTGAC	0.982
TAGGTTGACT	0.997
TAGTAAGTGT	1
TAGTACCAGA	1.01
TAGTACCGCG	0.99

Sequence	switch fluorescence ratio
TAGTAGTCCT	1.01
TAGTATCGGG	0.978
TAGTATGAGC	1.03
TAGTATGGGC	1.01
TAGTCCCCCG	0.997
TAGTCCGTTT	0.982
TAGTCGCGAT	1.03
TAGTCGGGGG	1.02
TAGTCTCGGG	1.02
TAGTGAGAGG	0.958
TAGTGAGGTA	1.02
TAGTGCACAT	0.94
TAGTGCACTG	0.972
TAGTGCCAAA	1.02
TAGTGCGCAC	1
TAGTGGATCA	0.992
TAGTGGCCCT	1.05
TAGTGGTCGT	1.02
TAGTGTTTGA	1
TAGTTAATAC	2.09
TAGTTACAAA	1.02
TAGTTAGACC	0.985
TAGTTAGGTG	1.1
TAGTTAGTAA	0.986
TAGTTATCAT	0.998
TAGTTCAACA	1.03

Sequence	switch fluorescence ratio
TAGTTCTGTA	1.02
TAGTTGAATG	0.978
TAGTTGAGGT	1.01
TAGTTGCGTA	1.03
TAGTTGTTT	0.977
TAGTTTATAG	0.996
TAGTTTCGGT	0.992
TAGTTTGTAA	1.04
TAGTTTGTAT	1.07
TAGTTTTCAC	0.98
TATAAAACTC	0.991
TATAAAATA	0.962
TATAAACCCT	1.14
TATAACTCG	0.982
TATAACTTGC	1.05
TATAAGAGTA	0.999
TATAAGGGC	1.02
TATAAGTTA	0.986
TATAATAAGA	0.981
